Test results published in PubChem BioAssay AID2451 (National Center for Advancing Translational Sciences (NCATS), 2010).
Where “and” joins values, the source holds several entries; their conditions need not be identical. Identical values can stand only once. Screen size: about 290,000 compounds; about 2,100 (0.72%) were called active. The inconclusive results got no clear call from the source; some entries with a clear call stand among them for comparison. The call rests on the fitted dose curve; in most records, active means well fitted inhibition curve with a large enough effect; inconclusive means small, poorly fitted or top-dose-only effect, or effect the other way; inactive means flat fitted curve, though single readings scatter. Potencies of inconclusive entries are doubtful fits and often do not repeat.

Each molecule was assayed against Fructose-bisphosphate aldolase (Giardia intestinalis (strain ATCC 50803 / WB clone C6)) (UniProt A8B2U2) (assay: qHTS Assay for Inhibitors of Fructose-1,6-bisphosphate Aldolase from Giardia Lamblia). Details: purified Giardia FBPA; activity, negative = inhibition: at 59.6 µM (top of the series) unless noted.
UniProt A8B2U2, sequence (A8B2U2 whole entry, looked up): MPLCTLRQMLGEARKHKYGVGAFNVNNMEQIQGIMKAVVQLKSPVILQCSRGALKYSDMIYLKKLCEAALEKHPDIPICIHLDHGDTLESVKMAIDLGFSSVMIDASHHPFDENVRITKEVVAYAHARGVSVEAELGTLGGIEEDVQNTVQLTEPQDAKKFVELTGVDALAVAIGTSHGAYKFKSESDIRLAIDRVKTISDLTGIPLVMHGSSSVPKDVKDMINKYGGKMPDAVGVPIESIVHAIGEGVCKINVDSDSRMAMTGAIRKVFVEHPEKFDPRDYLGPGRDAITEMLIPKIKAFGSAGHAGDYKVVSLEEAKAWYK
How it was run: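 Giardia FBPA (40 nM reagent) was preincubated 10 min at RT with compound (up to 57.5 uM final), then substrate plus GAPDH/TPI/NAD/arsenate coupling system with diaphorase/resazurin was added; resorufin fluorescence (525/598 nm) was read after 20 min.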
Further: nearly all actives have a fitted effect of over 55% in size.
On the % scale 0 is the no-effect control and ±100 the full control effect; potency means the concentration at half of the fitted maximal effect; tags describe the fitted curve by direction and shape.

Row | Compound | activity, negative = inhibition | Potency
1 | CCN(CC)CCCNc1nc(-c2ccccc2)nc2ccccc12 | inactive: -7.71% | 
2 | CSc1cccc(NC(=O)CSc2ncccc2C(=O)Oc2cccc([N+](=O)[O-])c2)c1 | inactive: 2.36% | 
3 | Oc1ccc(/C=N/NP(=S)(c2ccccc2)c2ccccc2)cc1O |  | inconclusive: 14.1 µM [inhibitor, partial curve]
4 | CC[n+]1c(/C=C2\Sc3ccccc3N2C)ccc2cccc(C)c21 | inactive: 9.58% | 
5 | Cc1ccc(N2CCN(Cc3ccccc3)CC2=O)c(C)c1 |  | inconclusive: 8.91 µM [inhibitor, partial curve]
6 | O=C(c1cccs1)N1CCC(N2CCN(c3ccccc3)CC2)CC1 |  | inconclusive: 14.1 µM [inhibitor, partial curve]
7 | COc1ccc(CNCCc2ccc3c(c2)OCO3)cc1Br |  | inconclusive: 11.2 µM [inhibitor, partial curve]
8 | Nc1ccc(N2CCN(C(=O)c3cccs3)CC2)cc1 | inactive: -15.2% | 
9 | O=C(Nc1cc(S(=O)(=O)N2CCOCC2)ccc1N1CCOCC1)c1cnccn1 | inactive: 13.2% | 
10 | CC(=O)NC(c1cccs1)c1cc([N+](=O)[O-])c2cccnc2c1O (configuration not stated) |  | inconclusive: 35.4 µM [inhibitor, single point]
11 | Cc1ccc(CN(C)C2CCN(C)CC2)cc1 | inactive: -15.1% | 
12 | CCOC(=O)c1c(-c2ccc(C)o2)csc1NC(=S)NC(=O)N(C)C |  | inconclusive: 7.92 µM [inhibitor, partial curve]
13 | N#Cc1cn(-c2cccc(C(F)(F)F)c2)c(=O)[nH]c1=O |  | inconclusive: 15.8 µM [inhibitor, partial curve]
14 | COCCN(C(=O)c1ccco1)c1nnc(-c2ccc(F)cc2)s1 | inactive: -6.44% | 
15 | CC1(OC(=O)CCc2ccccc2)C(=O)C=C2C=C(c3ccc(C#N)cc3)N(C(CO)CO)C=C2C1=O (configuration not stated) |  | inconclusive: 500 nM [inhibitor, full curve] and inconclusive: 1.77 µM [inhibitor, partial curve]
16 | Cc1ccc(C23CC4CC(CC(CN)(C4)C2)C3)cc1 | inactive: 4.41% | 
17 | O=C(c1cc(-c2ccc(Cl)cc2Cl)on1)N1CCCC1 | inactive: 6.84% | 
18 | COc1ccccc1CCNC(=O)C1CCC(=O)N(Cc2cccc(F)c2)C1 (configuration not stated) | inactive: 0.613% | 
19 | NC(=O)C1=C[C@@H](c2csc3ccccc23)C[C@@H](OCc2ccc(CO)cc2)O1 |  | inconclusive: 12.6 µM [inhibitor, partial curve]
20 | Nc1c(/C=C2/C=CC(=O)C(O)=C2)c(=O)nc2sc(CC(=O)N3CCCCC3)nn12 |  | inconclusive: 10 µM [inhibitor, partial curve]
21 | COc1ccc(-n2c(SC)nc3ccccc3c2=O)cc1 | inactive: 3.21% | 
22 | NS(=O)(=O)c1ccc(NC(=S)NC2CC2)cc1 |  | inconclusive: 19.9 µM [inhibitor, single point]
23 | CN(C)c1ccc(CNC(=O)C2CCN(S(=O)(=O)c3ccc4c(c3)CCC(=O)N4)CC2)cc1 |  | inconclusive: 15.8 µM [inhibitor, partial curve]
24 | O=C(Nc1ncn[nH]1)c1ccccc1O |  | active: 19.9 µM

Row | Compound | activity, negative = inhibition | Potency
25 | Cn1c(SCc2ccc(Cl)cc2)nnc1C1CC1 |  | inconclusive: 12.6 µM [inhibitor, partial curve]
26 | CCOC(=O)N1CCN(S(=O)(=O)c2ccc(C(=O)Nc3nnc(C4CC4)o3)cc2)CC1 |  | inconclusive: 15.8 µM [activator, partial curve]
27 | COc1ncc2nc(C)c(=O)n(C3CC3)c2n1 | inactive: -15.6% | 
28 | COc1ccc(-n2c(=S)[nH]c3cc(C(=O)NCCCN4CCOCC4)ccc3c2=O)cc1OC |  | inconclusive: 12.6 µM [inhibitor, partial curve]
29 | O=S(=O)(Nc1ccccc1N1CCOCC1)c1ccc(Cl)s1 |  | inconclusive: 17.7 µM [inhibitor, partial curve]
30 | COc1ccc(OCC#CCN2CCNCC2)cc1 |  | inconclusive: 20 µM [inhibitor, partial curve]
31 | O=C(C1=C[C@@H]2[C@H]3C(=O)N(c4ccccc4)C(=O)[C@H]3[C@@H](C(=O)c3ccc(Cl)cc3)N2C=C1)c1ccccc1 |  | inconclusive: 7.06 µM [inhibitor, partial curve]
32 | COc1ccccc1OCCn1ccnc1 |  | inconclusive: 5.62 µM [inhibitor, full curve, poor fit]
33 | COc1ccc(C(=O)NCC(=O)N/N=C/C(C)=C/c2ccco2)cc1OC |  | inconclusive: 19.9 µM [inhibitor, partial curve]
34 | N#C/C(=C\c1ccc(N2CCOCC2)o1)c1nc2ccccc2[nH]1 |  | inconclusive: 7.92 µM [inhibitor, partial curve]
35 | COc1ccccc1NS(=O)(=O)c1cccc(C(=O)N/N=C/c2ccc3c(c2)OCCO3)c1 | inactive: 3.21% | 
36 | Cn1c(=O)c2[nH]c(N=NNc3ccccc3F)nc2n(C)c1=O |  | inconclusive: 14.1 µM [inhibitor, partial curve]
37 | COc1ccc(CN=Cc2[nH]c3ccc(Br)c(Cl)c3c2O)cc1 |  | inconclusive: 5 µM [inhibitor, single point]
38 | Cc1csc(NC(=O)CN2CCCCCC2)n1 |  | active: 22.3 µM
39 | OCCCNc1cc(-c2ccnc(Nc3cccc(Cl)c3)n2)ccn1 | inactive: -3.85% | 
40 | CC(C1CC2CCC1C2)N1CC(O)=C(c2nc3ccccc3[nH]2)C1=N (configuration not stated) | inactive: -4.27% | 
41 | O=Cc1cc(Cl)ccc1OCCN1CCC(Cc2ccccc2)CC1 |  | inconclusive: 12.6 µM [inhibitor, partial curve]
42 | O=C(CNCCc1ccc(F)cc1)Nc1cc(F)ccc1F |  | inconclusive: 12.6 µM [inhibitor, partial curve]
43 | Cc1ccc(-c2nc(N)s[n+]2-c2ccccc2)cc1 |  | inconclusive: 17.7 µM [inhibitor, single point]
44 | CC1CN(CCOc2ccc(F)cc2)CC(C)O1 (configuration not stated) |  | inconclusive: 14.1 µM [inhibitor, partial curve]
45 | O=C1c2ccccc2NC(c2cn[nH]c2-c2ccccc2)N1O (configuration not stated) |  | inconclusive: 7.06 µM [inhibitor, partial curve]
46 | Cc1ccc2c(CN3CCCCC3C)cc(=O)oc2c1C (configuration not stated) | inactive: -11.7% | 
47 | COc1ccc(C)cc1S(=O)(=O)N1CCCC(C(=O)N2CCN(c3ccccc3)CC2)C1 (configuration not stated) | inactive: -4.76% | 
48 | O=C(NC(=S)N1CCCCCC1)c1ccccc1Cl |  | inconclusive: 19.9 µM [inhibitor, partial curve]

Row | Compound | activity, negative = inhibition | Potency
49 | N#CC1=C(N)N(c2ccc(F)cc2)C(=O)C1 |  | inconclusive: 15.8 µM [inhibitor, partial curve]
50 | CN1/C(=C/C(=O)c2ccc(Cl)cc2)Sc2cc3c(cc21)OCO3 | inactive: -8.83% | 
51 | CCCCN(c1ccccc1)S(=O)(=O)c1cccc(C(=O)O)c1 |  | inconclusive: 15.8 µM [activator, single point]
52 | O=C1c2cccc3c(O)ccc(c23)C(=O)N1Cc1ccco1 |  | inconclusive: 14.1 µM [inhibitor, partial curve]
53 | COc1ccc(C(=O)NC(=S)N2CCCCC2c2cccnc2)cc1OC (configuration not stated) |  | active: 3.55 µM
54 | COc1ccc(N2CCN(C(=O)COc3ccc(Cl)cc3Cl)CC2)cc1 |  | inconclusive: 15.8 µM [inhibitor, single point]
55 | N#CC1=C(N)C2=C(N3CCCCC3)CCCC2C1(C#N)C#N (configuration not stated) |  | inconclusive: 19.9 µM [inhibitor, partial curve]
56 | Cc1cccc(C(=O)NC(=S)NNC(=O)Cc2ccccc2)c1 |  | inconclusive: 12.6 µM [activator, partial curve]
57 | COc1ccccc1OCC(=O)Nc1cc(Cl)ccc1Oc1ccccc1 | inactive: 10.1% | 
58 | COC(=O)c1c(N)n(-c2ccc(NC(C)=O)cc2)c2nc3ccccc3nc12 |  | inconclusive: 9.98 µM [inhibitor, partial curve]
59 | FC(F)(F)c1ccccc1-n1c(-c2ccco2)n[nH]c1=S |  | inconclusive: 17.8 µM [inhibitor, partial curve]
60 | N#Cc1c2n(c3c(=S)nc[nH]c13)CCCCC2 |  | inconclusive: 17.7 µM [inhibitor, single point]
61 | CNCCc1c[nH]c2ccc(O)cc12 |  | active: 1.99 µM
62 | O=[N+]([O-])c1ccccc1CNC1CCCc2ccccc21 (configuration not stated) |  | inconclusive: 19.9 µM [inhibitor, partial curve]
63 | CC1(C(=O)NNC(=S)NCC2CCCO2)CC1(Cl)Cl (configuration not stated) |  | inconclusive: 14.1 µM [inhibitor, partial curve]
64 | O=C(O)c1ccc(Cl)c(NC(=S)NC(=O)c2cccc(COc3ccccc3)c2)c1 |  | inconclusive: 25.1 µM [inhibitor, partial curve]
65 | C=CCNc1nc2c3ccccc3n(C(C)=O)c2s1 |  | inconclusive: 14.1 µM [inhibitor, partial curve]
66 | N#CC1=C(S)N(c2ccccc2)C(c2ccco2)NC1=O (configuration not stated) |  | inconclusive: 44.6 µM [inhibitor, single point]
67 | Cc1ccc(S(=O)(=O)[N-]c2nc3ccccc3nc2-n2cc[n+](Cc3ccccc3)c2)cc1 |  | inconclusive: 22.3 µM [inhibitor, single point]
68 | CCOc1ccc(Nc2nc(N3CCCC3)nc(N3CCN(c4ccc(OC)cc4)CC3)n2)cc1 | inactive: -2.8% | 
69 | O=C(O)c1cc(-c2ccc(/C=N/Nc3ccc([N+](=O)[O-])cn3)o2)ccc1Cl |  | inconclusive: 15.8 µM [inhibitor, partial curve]
70 | O=C(NCc1ccco1)c1cccnc1-c1nc2ccccc2s1 |  | inconclusive: 22.3 µM [inhibitor, single point]
71 | CCOC(=O)N1CCN(C2=Nc3cccc4cccc2c34)CC1 |  | inconclusive: 3.97 µM [inhibitor, full curve]
72 | COC(=O)c1cc(O)c(O)c(O)c1 |  | inconclusive: 15.8 µM [inhibitor, partial curve]
